Test results published in article PMC6212790.
The list shows a part of the results. At the low end of the ranking, values are background and their order means little.

Target: T1, GST-Rok-C97-191 (UniProt O34857)
T1 sequence: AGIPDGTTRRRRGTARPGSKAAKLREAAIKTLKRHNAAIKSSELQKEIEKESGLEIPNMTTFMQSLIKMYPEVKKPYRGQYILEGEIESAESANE
Assay: protein binding microarray;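 note: rank score from −0.5 (least bound) to 0.5 (best bound)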
Conditions: Rok is a gene silencer of Bacillus subtilis; high values mean tight binding; most listed sequences are background and not binding sites; double strand, one strand shown

Sequence | binding signal
CACGCTTA | -0.0235 E-score
CGCCGGTC | -0.256 E-score
CTTCCTCA | -0.0806 E-score
AACGGGCG | 0.000722 E-score
AAGATTAA | 0.0955 E-score
CCATCGGC | -0.0744 E-score
CAAGCAAC | -0.113 E-score
CGCGCACC | -0.106 E-score
GCCCTCCC | -0.412 E-score
AGGCCCTC | -0.337 E-score
GAGATAAC | 0.247 E-score
CGTGCCCC | -0.27 E-score
AAGATATA | 0.347 E-score
TAGCTATA | 0.292 E-score
AGCCATCG | -0.206 E-score
TCTTGTAA | 0.182 E-score
GTGTACGA | -0.00664 E-score
TCGCGACA | -0.135 E-score
CCGACCCC | -0.443 E-score
CAGATTCG | 0.0867 E-score
CGGCAGTC | -0.22 E-score
AAGCCCTA | -0.172 E-score
AACCTGTA | 0.0423 E-score
GCCTGGAA | -0.0762 E-score
AACGCACA | -0.111 E-score

Sequence | binding signal
CTATTTGC | 0.142 E-score
AGAAGACC | -0.0237 E-score
TATATGAA | 0.265 E-score
AGTATAAG | 0.259 E-score
AAGCCTGC | -0.209 E-score
AATTACTC | 0.255 E-score
CCGTCACG | -0.096 E-score
CTGCTTGC | -0.0519 E-score
ATCGTCTA | 0.137 E-score
CGCGGGAC | -0.366 E-score
AGTGCGGG | -0.171 E-score
GCCCACGC | -0.179 E-score
GTTCGTAA | 0.0791 E-score
CCGAGCCA | -0.127 E-score
TGTCTTAA | -0.0778 E-score
ACTTGAGG | -0.0185 E-score
ACCTTCGG | -0.173 E-score
AGCTCGGA | -0.175 E-score
TAGATGCA | 0.155 E-score
ACGGACCC | -0.186 E-score
TGTAGCAA | 0.194 E-score
AGGGTGTA | -0.023 E-score
AGGTTTTA | 0.0365 E-score
AACCGTGC | -0.0781 E-score
AGCCGGTA | -0.113 E-score

Sequence | binding signal
GACTGGAC | -0.246 E-score
CATAATCA | 0.112 E-score
CCAGGCGA | -0.0465 E-score
AGTTAACG | 0.209 E-score
GCATGTAC | 0.163 E-score
ATTTCGCG | 0.158 E-score
ACGACCCT | -0.0589 E-score
TCATACCA | 0.0725 E-score
AAGCATTC | -0.00996 E-score
CAGTGTGA | -0.0766 E-score
CTCATCGA | 0.0576 E-score
TAATGAAA | 0.107 E-score
AAGAATGG | -0.0198 E-score
CTTTGATA | 0.144 E-score
GGCCGCAC | -0.397 E-score
TACATGTA | 0.417 E-score
CGATTGAG | -0.142 E-score
AGAGGTCG | -0.0568 E-score
CAACGGGA | -0.0348 E-score
AGGGTGTG | -0.0958 E-score
GTCTTTAA | -0.0159 E-score
CTCCGAGA | 0.0341 E-score
AATGTGTG | 0.011 E-score
CCGCGTTA | -0.185 E-score
ATTCCGTA | 0.296 E-score

Sequence | binding signal
ATCTATCC | 0.115 E-score
CTTGAGCA | 0.017 E-score
AAATTACC | 0.365 E-score
TGGCTCAA | -0.0195 E-score
GACGCAGC | -0.311 E-score
TTCATGAA | -0.061 E-score
ATACTTAG | 0.213 E-score
CCCCATCA | -0.108 E-score
AAACCTGT | -0.109 E-score
AGTCCTCG | -0.119 E-score
ACTTCCCC | 0.0327 E-score
CCGCCTAA | -0.335 E-score
CCTAAAGA | 0.135 E-score
ACAAACAG | 0.143 E-score
CGTCGTTC | -0.243 E-score
AATACGAG | 0.0609 E-score
AGTATGCC | 0.0155 E-score
GGGCCTGA | -0.29 E-score
GTAGCTTA | 0.211 E-score
GGAATTCC | 0.0128 E-score
CCTGCGCC | -0.169 E-score
CTTCGTCA | -0.15 E-score
GCCTACAA | 0.182 E-score
TCAGGGGA | -0.111 E-score
GCGATAAC | 0.137 E-score

Sequence | binding signal
ACGTCTAG | 0.199 E-score
ATAAATTG | 0.264 E-score
ACGTCACT | 0.0919 E-score
AGTAGTAC | 0.356 E-score
GGGATAAC | 0.0538 E-score
AAATATAG | 0.22 E-score
CCTTAAAA | -0.0245 E-score
GACGTGCA | -0.0735 E-score
GGTGAGGA | -0.218 E-score
ATACGTGA | 0.147 E-score
ATGGTTCA | -0.0658 E-score
CATTGCGG | -0.224 E-score
CGGATGCA | -0.121 E-score
CGTACCTA | 0.178 E-score
CCGTACCA | -0.142 E-score
AGACACGA | -0.238 E-score
GGCGATGA | -0.154 E-score
CTATGTCA | 0.0815 E-score
TAGGGGGA | -0.143 E-score
AAAAAGAC | -0.0782 E-score
CCTCCGTA | -0.245 E-score
TCAGACCA | -0.165 E-score
AATGTGAG | 0.0644 E-score
GACAGCTC | -0.355 E-score
CTCTAGCA | -0.00502 E-score

Sequence | binding signal
ATAGAGAC | 0.171 E-score
AACCAGAA | -0.152 E-score
AGACATTA | 0.0762 E-score
AGGAGCTA | 0.0936 E-score
CGATCACG | -0.198 E-score
ATACCCTG | -0.0272 E-score
ACTTATTA | 0.283 E-score
GCATGGCA | -0.154 E-score
TCGGGGCA | -0.0327 E-score
CGAATGCC | -0.214 E-score
TAATCCAA | -0.00906 E-score
ACATACGC | -0.0272 E-score
GCCATTAA | 0.0393 E-score
CCTTGCAA | -0.173 E-score
CGCTATGA | -0.117 E-score
AGGAGCGA | -0.17 E-score
ACTCGCGG | -0.0967 E-score
GCGTCGTA | -0.00913 E-score
GTTACAAA | 0.0329 E-score
AAGGATGC | -0.0681 E-score
GTATATCA | 0.216 E-score
GTTGTTAA | 0.19 E-score
GAACCAGC | -0.0106 E-score
ACACGGTA | 0.0693 E-score
CCCCACGC | -0.111 E-score

Sequence | binding signal
ACGTTTTA | 0.0816 E-score
GCACCACC | -0.138 E-score
TTAACTAA | 0.235 E-score
GCATCTAA | 0.144 E-score
CATTCAGG | -0.226 E-score
CCCCGCGC | -0.309 E-score
TAAAATCA | 0.203 E-score
AAATACCA | 0.286 E-score
CCTCATCA | -0.117 E-score
CAGTAGTA | 0.362 E-score
AGCACCTG | -0.227 E-score
AAAGCAGC | -0.121 E-score
CAAAGAGG | -0.0617 E-score
ATCGTATC | 0.235 E-score
AGGTAACA | 0.0028 E-score
CCATGAAA | -0.0976 E-score
ACGGCCGA | 0.0172 E-score
ATGGACGC | -0.141 E-score
TATGTCCA | 0.206 E-score
GTGCCCTA | -0.193 E-score
CCATACCG | -0.0056 E-score
GGGGACAA | -0.259 E-score
